# Measured values as given in PubChem BioAssay (NCI).
#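 1) Cells in 96-well plates. 2) Compound, 48 h, 5 concentrations. 3) Linear interpolation between surrounding doses. 4) Unreached endpoint = highest concentration. GI50 = concentration required for 50% inhibition of growth. TGI: total growth inhibition.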 Numbered stars: 1 amine (or outer) side, 2 acyl side, 3 side chain; on linkers, the order of the positions; unused ones are H or OH. Bridge positions count the residues as written; N and C are the ends. Square brackets hold non-standard residues; d marks the D form. Peptide text beside a SMILES is read from it. I, II: the chains in the order shown. Actinocin(9to1) = Cc1c2oc3c(C)ccc(C(=O)[*:1])c3nc-2c(C(=O)[*:2])c(N)c1=O; NMeV = CN[CH](C(=O)O)C(C)C; Sar = CNCC(=O)O
# System: NCI-H322M lung
# Assay: growth of human tumour cells (NCI), 48 h
Structure (SMILES),GI50 [µM],TGI [µM]
Oc1ccc(Cc2ccc(O)c3ncccc23)c2cccnc12,0.294,> 100
CCCCNC(=S)Nc1nc(C(=O)NNC(=S)NCc2ccccc2)cs1,–,> 100
Clc1ccc(-n2nnc(C3=NCCN3)c2-c2ccccc2)cc1,–,> 100
O=[N+]([O-])c1cccc([N+](=O)[O-])c1Cl,–,37.9
CC(C)N(C(=O)C12C3C4C5(C#N)C3C1(I)C5C42I)C(C)C (stereo not drawn),–,> 100
C=C1CC(Cn2cc(Br)c(=O)[nH]c2=O)(c2ccc(Br)cc2)OC1=O (stereo not drawn),–,28.1
CC(=O)OC[C@H]1O[C@@H](n2ccc(=O)[nH]c2=O)[C@H](OC(C)=O)[C@@H]1OC(C)=O,> 100,> 100
C/C(=N/S(=O)(=O)c1ccc(Cl)c(Cl)c1)OCC(C)(C)C,–,> 100
Cc1cccc(-c2nc3c(C(=O)NCCN(C)C)cccc3[nH]2)c1,–,6.4
COc1ccc(Nc2nc(NNC(=O)Cc3ccccc3)nc(NNC(=O)c3ccncc3)n2)cc1,–,> 10
O=c1n(C2CCCCC2)c(=C(Cl)Cl)c(=C(Cl)Cl)n1C1CCCCC1,–,> 100
CC1OC(n2ncc(=O)[nH]c2=O)C=CC1=O (stereo not drawn),–,> 100
Cc1ccccc1-c1c(N)nc(NC#N)nc1C(=O)Nc1ccccc1,–,> 100
O=C1/C(=C/c2cccs2)N=C(c2ccccc2)N1c1nc2ccccc2s1,–,> 100
c1cc2c3c(c1)[C@@H]1O[C@@H]1c1cccc(c1-3)[C@@H]1O[C@H]21,–,> 100
"Cc1c2oc3c(C)ccc(C(=O)NC4C(=O)NC(Cc5ccc(O)cc5)C(=O)N5CCCC5C(=O)N(C)CC(=O)N(C)C(C(C)C)C(=O)OC4C)c3nc-2c(C(=O)NC2C(=O)NC(Cc3ccc(O)cc3)C(=O)N3CCCC3C(=O)N(C)CC(=O)N(C)C(C(C)C)C(=O)OC2C)c(N)c1=O (stereo not drawn) (I: TYP[Sar][NMeV] / II: TYP[Sar][NMeV]; ester I:1-I:C, II:1-II:C; linker I:N-II:N via Actinocin(9to1); configuration not given here)",–,> 100
C/C(=C\COP(=O)(O)OP(=O)(O)O)CC/C=C(\C)CNc1ccccc1,–,43
c1ccc(Cc2nc3ccc(Nc4ncnc5ccccc45)cc3[nH]2)cc1,21.7,> 25
O=C(c1ccccc1)c1ccc2nc(-c3c(Cl)c(Cl)c(Cl)c(Cl)c3C(=O)Nc3ccco3)[nH]c2c1,–,> 100
CCOc1ccccc1N=NC1C(=O)N(C(=O)CC(=O)Nc2ccccc2OC)N=C1C (stereo not drawn),–,> 100
CCOP(=O)(OCC)C(NC(c1ccccc1)c1ccccc1)c1ccccc1 (stereo not drawn),11.8,24.6
[N-]=[N+]=NC(c1cn(C2CC(O)C(CO)O2)c(=O)[nH]c1=O)C(Br)I (stereo not drawn),–,> 100
C/C(=N\NC(=O)c1ccncc1)c1cccc(C(F)(F)F)c1,–,> 10
CCCCCCCCCCC/C(=N/O)c1ccc(O)c2ncccc12,–,93.4

Structure (SMILES),GI50 [µM],TGI [µM]
N#Cc1c(C(=O)c2ccccc2)cnn1-c1ccccc1,> 25,> 25
CCC(=O)Nc1ccc(N2C(=O)/C(=C/c3ccc(O)c(OC)c3)N=C2c2ccccc2)cc1,–,38.2
CSc1nc(NC2OCC(OC(C)=O)C(OC(C)=O)C2OC(C)=O)c2c(OC(C)=O)c(C)c(=O)oc2n1 (stereo not drawn),–,> 100
N#CC(NNC(=O)c1ccccc1O)c1ccc(O)cc1 (stereo not drawn),–,> 100
O=C1C=C[C@@]23CC1C(O)C[C@H]2C=Cc1ccccc13 (stereo partly drawn),–,> 100
CCCN(CCCCC(NC(C)=O)C(=O)NCc1ccccc1)C(=O)NCCCl (stereo not drawn),–,> 100
O=C(O)CNc1c2ccccc2nc2ccccc12,–,> 100
O=C1CCC(Cc2ccc(Cl)cc2Cl)C(=O)N1 (stereo not drawn),–,> 100
CCCC(CC)c1cc(O)c(O)cc1C(CC)CCC (stereo not drawn),–,> 10
CC(=O)O[C@H]1C(=O)[C@@]2(C)C(C(OC(=O)c3ccccc3)[C@]3(O)CC(OC(=O)[C@H](OC(=O)CCC(=O)O)C(NC(=O)c4ccccc4)c4ccccc4)C(C)=C1C3(C)C)C1(OC(C)=O)COC1C[C@@H]2OC(=O)CCC(=O)O (stereo partly drawn),–,> 100
Cc1ccc(C(=O)Nc2ccc(CN3CCN(C)CC3)c(C(F)(F)F)c2)cc1C#Cc1cnc(N)cc1C#N,0.284,3.01
C=C1C(=O)O[C@H]2[C@H]1CC/C(COC(=O)/C=C/C(=O)OC/C1=C/CC[C@@]3(C)O[C@H]3[C@H]3OC(=O)C(=C)[C@@H]3CC1)=C\CC[C@@]1(C)O[C@@H]21,> 100,> 100
CCN(Cc1cccc(OC)c1)c1ccc(CO)c(Cl)c1,11.1,42.4
O=C1CCc2cc3c(cc21)C(C(=O)O)CC3 (stereo not drawn),–,> 100
CCn1c(SCc2nnc(Nc3ccccc3)s2)nc2ccccc2c1=O,–,8.41
Cc1ccc(C2(N3CCOCC3)OC(C)(C)c3cccc4cccc2c34)cc1 (stereo not drawn),–,34
C[C@@H]1C=C(CCCCCCCCCCC[C@H](O)[C@@H]2CCC(=O)O2)C(=O)O1,42.4,> 100
C=C1[C@@H](C)[C@H]2[C@H](Cc3ccccc3)NC(=O)[C@]23OC(=O)/C=C/[C@H](O)CCC[C@@H](C)C/C=C/[C@H]3[C@@H]1O,–,> 97.5
CCCCCCCCCCCCCCCCCC(=O)OCC(CN(C)CCN(C)C)OC(=O)CCCCCCCCCCCCCCCCC (stereo not drawn),–,> 100
Nc1ccc2c(SCCSc3c4ccccc4nc4cc(N)ccc34)c3ccccc3nc2c1,–,> 100
O=C(/C=C/c1cccnc1)NCCCCC1CCN(C(=O)c2ccccc2)CC1,> 100,> 100
CCN1C2=NC(=O)N(C)C(=O)C2(Cl)C(C(SC)S(=O)(=O)c2ccc(C)cc2)c2ccccc21 (stereo not drawn),–,> 100
CC(=O)c1cc(S(=O)(=O)c2ccc(O)c(C(C)=O)c2)ccc1O,–,> 100
CC(C)CCCC(C)[C@H]1CC[C@H]2NCCCC[C@]12C (stereo partly drawn),–,12.4

Structure (SMILES),GI50 [µM],TGI [µM]
CC(O)/C=C/C(CCC(C)CO)C(C)C (stereo not drawn),–,> 100
c1ccc2c(c1)ccc1nc(-c3ccc4c(c3)OCO4)c3c(c12)CCC3,–,> 100
OCC1c2ccccc2-n2nc(-c3ccccc3)c(O)c21 (stereo not drawn),–,> 100
NC(=O)c1cnc(N[C@@H]2CCCC[C@@H]2N)nc1Nc1cccc(-n2nccn2)c1,5.48,18.5
COc1ccc(/C=N/N=C(\N)NO)c(OC)c1OC,–,> 100
COC(=O)NC(Nc1ccc(C)cc1)(C(F)(F)F)C(F)(F)F,–,> 100
COc1ccc(/C=N/N=C(\N)NO)cc1OC,–,> 100
COc1ccc(/C=C/C(=O)c2cc3c(N)c(C(=O)Nc4ccccc4Cl)sc3nc2C)cc1,4.64,> 50
CCOC(=O)CC(=O)Sc1ccccc1,–,> 100
COCCn1cc(-c2csc(-c3c[nH]c4ccccc34)n2)c2cccnc21,> 100,> 100
COC(=O)C1=C(C)N(NC(N)=O)C2(N)N(NC(N)=O)C(C)=C(C(=O)OC)C12C(=O)OC (stereo not drawn),–,> 100
Cc1sc2nc3n(sc4nc5sc(C)c(C)c5c(=O)n43)c(=O)c2c1C,–,> 100
O=S(=O)([O-])c1cccc2cccc(N=Cc3ccccc3[O-])c12.O=S(=O)([O-])c1cccc2cccc(N=Cc3ccccc3[O-])c12.[O]=[U]=[O],> 100,> 100
Cc1ccc2c(c1)nc(C(=O)c1ccco1)c(C(F)(F)F)[n+]2[O-],> 100,> 100
COc1ccc(C[C@H]2COC(=O)[C@@H]2Cc2ccccc2)cc1OC,–,> 100
Cc1cccc(=O)c([O-])c1.Cc1cccc(=O)c([O-])c1.Cc1cccc(=O)c([O-])c1.Cc1cccc(=O)c([O-])c1.[Th+4],–,> 100
O=c1cc(C(F)(F)F)c2cc3c(cc2o1)NCCC3,–,> 100
Cc1ccc(Cl)c2c(=O)cc(-c3ccccc3)[nH]c12,–,> 100
Cc1cc2nc3c(N)nn(CCN(C)C)c3nc2cc1C,–,> 100
COC(=O)C1CC(C(=O)OC)c2nc3cc(C)ccc3nc21 (stereo not drawn),–,> 100
CCOC(=O)c1c(SCCN2CCCCC2)n(-c2ccccc2)c(=S)n(-c2ccccc2)c1=O,–,> 74.8
N[C@@H](Cc1c[nH]c2ccccc12)C(=O)NC1CCN(C(=O)c2c[nH]c3ccccc23)CC1,> 100,> 100
O=C1NC(=S)NC(=O)C1=Cc1cc2c(cc1[N+](=O)[O-])OCO2,–,> 100
CCCC[C@H]1C(=O)O[C@H](C)[C@H](NC(=O)c2cccc(NC=O)c2O)C(=O)O[C@@H](C)[C@@H]1OC(=O)CC(C)C,–,38.2

Structure (SMILES),GI50 [µM],TGI [µM]
S=c1oc(CCCCCCCCc2nn(CNc3ccc(Cl)cc3)c(=S)o2)nn1CNc1ccc(Cl)cc1,–,> 100
COC(=O)c1c(C)cccc1C1CN=NC12Cc1cccc(C)c1C2=O (stereo not drawn),–,> 100
CCO[C@@H]1OC(=O)[C@](C)(C(C)=O)[C@@H]1C,–,> 100
O=c1c2ccccc2c2ccccc2c(=O)n1-c1cc2c3ccccc3ccc2c2ccccc12,–,> 100
CC1=C([Se]CC(OC(=O)CC[Se]c2ccccc2)C(=O)NCCCCCC(=O)OCc2ccccc2)C(=O)c2ccccc2C1=O (stereo not drawn),2.87,24.8
O=c1cccc(C#CC#C[C@H]2O[C@@H]2CO)o1,2.49,6.19
O=C1NC(=S)N/C1=C\c1ccc(Sc2ccccc2C(=O)O)s1,–,> 100
C(=N\Nc1ccccn1)/c1ccccn1,0.267,> 100
CN1C(=O)C(CCO)(C(C)(C)C)c2ccccc21 (stereo not drawn),–,> 100
C/C=C\C(CC(=O)NCCc1c[nH]c2ccccc12)CC(=O)OC (stereo not drawn),–,> 100
COc1ccc(-n2c(SCc3cc(OC)c(OC)c(OC)c3)nc3ccc(C)cc3c2=O)c(OC)c1,3.61,> 100
CCCC1c2c(ccc3ccccc23)Oc2ccc3ccccc3c21,–,> 100
Nc1ccccc1C#C/C=C\C#Cc1ccccc1C(F)(F)F,12.1,27.9
Cc1cn(C2CC(SCCO)C(CO)O2)c(=O)[nH]c1=O (stereo not drawn),–,> 100
CC12CCC3C(CC=C4CC(O)CCC43C)C1C/C(=C\N1CCCC1)C2=O (stereo not drawn),> 100,> 100
COc1c(-c2ccc(F)cc2)oc2cc(O)cc(O)c2c1=O,–,> 100
COc1ccc2[nH]c(-c3ccccn3)cc(=O)c2c1,–,> 100
COc1ccc(-c2cc(-c3ccc(OC)c(OC)c3)nc(SCCCC(=O)NO)n2)cc1,1.59,7.49
CCC1(O)CC(O)c2c(O)c3c(c(O)c2C1C(=O)OC)C(=O)c1cccc(O)c1C3=O (stereo not drawn),–,24
O=C(/C=C/c1ccc(OCC(=O)N2CCN(c3ccccc3)CC2)cc1)c1ccc(Cl)cc1,–,> 100
CCOC(=O)c1nc2ccccc2nc1Nc1ccc(F)cc1,–,> 100
COc1ccc(OC)c(-c2cn3c(n2)sc2ccccc23)c1,–,> 100
CN1CCCC(OC(=O)c2cc3cc(CCl)ccc3oc2=O)C1 (stereo not drawn),–,39.1
